{"source": "PubChem BioAssay AID1671194", "about": "(National Center for Advancing Translational Sciences (NCATS), 2021)", "note": "Out of some 140,000 compounds screened, about 240 (0.17%) were called active. The shares of active, inactive and inconclusive entries below differ from those in the screen. The call rests on the fitted dose curve; in most records, active means well fitted inhibition curve with a large enough effect; inconclusive means small, poorly fitted or top-dose-only effect; inactive means no such curve, though single readings can be large or run the other way. Potencies of inconclusive entries are doubtful fits and often do not repeat. Potency means the concentration at half of the fitted maximal effect; tags describe the fitted curve by direction and shape.", "data": [{"assay": "Primary qHTS assay for inhibitors of alpha-synuclein gene (SNCA) expression; further: nearly all actives have a fitted effect of over 45% in size", "conditions": "HEK-293 SNCA-luciferase knock-in, luminescence, 24 h; series mostly up to 57.2 µM", "values": [{"smiles": "CCC1Oc2ccc(NC(=O)c3ccccc3F)cc2CN(Cc2ccc3c(c2)OCO3)C1=O", "note": "(stereo not drawn)", "Potency": "inactive"}, {"smiles": "COc1ccc(CN(C(=O)c2ccco2)c2ccc(CC(=O)NCCc3ccccc3)cc2)cc1", "Potency": "inconclusive: 0.708 µM [inhibitor, single point]"}, {"smiles": "Cc1ccc(C(=O)N2CCC3(CC2)N=C(c2ccc(C)cc2)NO3)cc1", "Potency": "inactive"}, {"smiles": "Cc1ccc(CNC(=O)Cn2ccn(-c3cccc(Cl)c3)c(=O)c2=O)cc1", "Potency": "inconclusive: 39.8 µM [inhibitor, single point]"}, {"smiles": "O=C(Cc1ccccc1)N1CCC(Oc2cnc3c(ccn3-c3cncnc3)c2)CC1", "Potency": "inconclusive: 56.2 µM [inhibitor, single point]"}, {"smiles": "CC(=O)Nc1cc(C(=O)N2CCC(C)CC2)c2ccc(C)nc2c1", "Potency": "inconclusive: 39.8 µM [inhibitor, single point]"}, {"smiles": "O=C(c1ccc(F)cc1Cl)N1CCC(Cc2nc(-c3ccc(F)cc3)no2)CC1", "Potency": "inconclusive: 39.8 µM [inhibitor, single point]"}, {"smiles": "Cc1ccc(C)c(OCC(=O)c2ccc3c(c2)N(C(C)C(=O)NCC2CCCO2)C(=O)CO3)c1", "note": "(stereo not drawn)", "Potency": "inconclusive: 28.2 µM [inhibitor, single point]"}, {"smiles": "COC(=O)c1ccccc1NC(=O)Cn1cccc1-c1nc(-c2ccccc2)no1", "Potency": "inactive"}, {"smiles": "COc1ccc(-c2noc(CC3CCN(C(=O)CCc4cccc(OC)c4)CC3)n2)cc1", "Potency": "inactive"}, {"smiles": "O=C(Cc1ccc(N(Cc2cccc(F)c2)C(=O)c2ccco2)cc1)NCc1ccccc1", "Potency": "inactive"}, {"smiles": "CCNC(=O)NCC1CCN(Cc2cc(Cl)cc(Cl)c2)C1", "note": "(stereo not drawn)", "Potency": "inactive"}, {"smiles": "NC(=O)c1ccc(CC2CCN(C(=O)C3CCOCC3)CC2)cc1", "Potency": "inconclusive: 7.08 µM [inhibitor, single point]"}, {"smiles": "Cc1cc2nc3n(c(=O)c2n1CC(=O)Nc1ccc(F)c(F)c1)CCCC3", "Potency": "inconclusive: 1.26 µM [inhibitor, full curve, poor fit]"}, {"smiles": "COc1ccc(-n2c(SCCC(C)C)nc3sc4c(c3c2=O)CC(C(C)C)OC4)cc1", "note": "(stereo not drawn)", "Potency": "inconclusive: 20 µM [inhibitor, single point]"}, {"smiles": "CC1CCC(NC(=O)c2ccc(CSc3nc4ccncc4n3Cc3ccc(F)cc3)cc2)CC1", "note": "(stereo not drawn)", "Potency": "inconclusive: 39.8 µM [inhibitor, partial curve, poor fit]"}, {"smiles": "CCc1ccc(NC(=O)c2cc(S(=O)(=O)NC3CCCCCC3)ccc2F)cc1", "Potency": "inconclusive: 39.8 µM [inhibitor, single point]"}, {"smiles": "O=C1Nc2ccc(-c3cccc(C(F)(F)F)c3)cc2C(=O)N2CCN(C(=O)c3ccccc3)C[C@H]12", "Potency": "inconclusive: 39.8 µM [inhibitor, single point]"}, {"smiles": "O=C([C@@H]1C[C@H](Oc2cccnc2)CN1C(=O)COc1ccc(F)cc1)N1CCCC1", "Potency": "inactive"}, {"smiles": "CC(C(=O)N1CC(c2noc(COc3ccccc3)n2)C1)c1ccccc1", "note": "(stereo not drawn)", "Potency": "inactive"}, {"smiles": "COc1ccc(CN2C[C@H]3CN(Cc4cccnc4)CCN3C2=O)cc1", "Potency": "inactive"}, {"smiles": "CCN1CCN(CCCNC(=O)Cn2c(-c3cccs3)cc3cc(Cl)ccc32)CC1", "Potency": "inconclusive: 39.8 µM [inhibitor, partial curve, poor fit]"}, {"smiles": "COc1ccc(C(=O)N2CCC3(CC2)N=C(c2ccc(Cl)cc2)NO3)cc1OC", "Potency": "inconclusive: 11.2 µM [inhibitor, partial curve]"}, {"smiles": "CC(=O)NCC(=O)N1[C@H]2CC[C@H]1c1cc(Nc3ncc(C(F)(F)F)c(NC4CCC4)n3)ccc12", "Potency": "inconclusive: 27.1 µM [inhibitor, single point]"}, {"smiles": "Cc1nnc(-c2cc(-c3cccc(O)c3)ccn2)n1CCc1ccccc1", "Potency": "inconclusive: 11.2 µM [inhibitor, single point]"}, {"smiles": "COCCC(=O)N[C@H]1C[C@@H](c2nc(-c3ccc(OC(F)(F)F)cc3)no2)N(C)C1", "Potency": "inconclusive: 10 µM [inhibitor, full curve]"}, {"smiles": "O=C(NCc1nnc2ccc(-c3ccccc3)nn12)c1cccc(C(F)(F)F)c1", "Potency": "inactive"}, {"smiles": "FC(F)Oc1cccc(CNC2CCC3(CCNCC3)CC2)c1", "Potency": "inactive"}, {"smiles": "COc1ccc(CC(=O)N2CCC(Cc3nc(-c4ccc(F)cc4)no3)CC2)cc1OC", "Potency": "inactive"}, {"smiles": "COc1ccc(C(=O)N2C[C@@H](CO)[C@H](c3ccncc3)C2)c(OC)c1", "Potency": "inactive"}, {"smiles": "Oc1cc(-c2cccc(Cl)c2)cc2c1OCCN(Cc1noc(C3CC3)n1)C2", "Potency": "inactive"}, {"smiles": "COc1ccc(CN2C[C@H]3CN(C4CCOCC4)C[C@@]3(C(=O)O)C2)cc1O", "Potency": "inconclusive: 39.8 µM [inhibitor, single point]"}, {"smiles": "CCOc1ccccc1NC(=O)COC(=O)CC(C)(C)CC1=NS(=O)(=O)c2ccccc2N1", "Potency": "inconclusive: 15.8 µM [inhibitor, partial curve, poor fit]"}, {"smiles": "Cn1cc(-c2cccc(O)c2)c2nc(COc3ccc(Cl)cc3)cn2c1=O", "Potency": "inconclusive: 56.2 µM [inhibitor, single point]"}, {"smiles": "CCOCc1cc(CN2CCN(c3cccc(C(F)(F)F)c3)CC2)c(O)c2ncccc12", "Potency": "inconclusive: 17.8 µM [inhibitor, partial curve, poor fit]"}, {"smiles": "O=C1CCN(C(=O)[C@@H]2CCCN2Cc2ccc(F)cc2F)CCCCCCN1", "Potency": "inactive"}, {"smiles": "O=C(NCCc1nc2ccccc2n1Cc1ccccc1F)c1ccc(F)cc1", "Potency": "inconclusive: 7.08 µM [inhibitor, single point]"}, {"smiles": "O=C(CC1CCCCC1)N1CCC(Cc2nc(-c3ccc(F)cc3)no2)CC1", "Potency": "inactive"}, {"smiles": "O=[S+]1([O-])NCC2(CCN(Cc3ccccc3)C2)Nc2ccccc21", "note": "(stereo not drawn)", "Potency": "inactive"}, {"smiles": "O=C(Nc1ccccc1)N[C@H]1[C@H](O)[C@@H](N2CCN(c3ccccc3)CC2)[C@@H]2OC[C@H]1O2", "Potency": "inconclusive: 39.8 µM [inhibitor, partial curve, poor fit]"}, {"smiles": "O=C([C@H]1CCC[C@@H](O)C1)N1CCN(C2Cc3ccccc3C2)CC1", "Potency": "inactive"}, {"smiles": "CCC(C)S(=O)(=O)c1oc(-c2cccs2)nc1S(=O)(=O)c1ccccc1", "note": "(stereo not drawn)", "Potency": "inconclusive: 5.62 µM [inhibitor, full curve, poor fit]"}, {"smiles": "O=S(=O)(c1ccccc1)N1CCC2(CCCN(Cc3ccccc3)C2)CC1", "Potency": "inconclusive: 28.2 µM [inhibitor, single point]"}]}]}
